Assay results reported in PubChem BioAssay AID903 (National Center for Advancing Translational Sciences (NCATS), 2007).
The whole screen tested about 55,000 compounds, of which about 340 (0.62%) were called active. Inconclusive means that the source gave no clear call. Such entries were picked first, then a sample of the others. Calls follow the shape of the dose curve; as a rule, active = well fitted cell-killing curve with a large enough effect; inconclusive = small, poorly fitted or top-dose-only effect; inactive = no such curve, though single readings can be large or run the other way. Potencies of inconclusive entries are doubtful fits and often do not repeat.

Test: qHTS Screen for Compounds that Selectively Target Cancer Cells with p53 Mutations: Cytotoxicity of p53 Null Cells at the Permissive Temperature; also: nearly all actives have a fitted effect of over 55% in size;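 as to activity change, negative = cytotoxicity: 0% = DMSO only and -100% = full killing by 100 µM tamoxifen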
Conditions: H1299-neo p53 null cells, ATP luminescence, 24 h, 32C; series mostly up to 46.1 µM; activity change, negative = cytotoxicity: at the top concentration
Method in brief: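 Cells lacking p53 (H1299-neo) are plated at 600 per well and allowed to settle overnight at 37C. Test compounds (up to 46 uM) are added and held 24 hours at 32C, then ATP is quantified by luminescence.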
Potency is read from the fitted curve at half-maximal effect; tags tell the direction and shape of the fitted curve.

Structure (SMILES)	Potency	activity change, negative = cytotoxicity
O=S(=O)(Nc1cccc(-c2ccc(N3CCCCC3)nn2)c1)c1cccc(F)c1	inconclusive: 10 µM [cytotoxic, partial curve]	–
CCCCN(C)S(=O)(=O)c1cc(-c2nnc3c4ccccc4c(C)nn23)ccc1C	inconclusive: 7.94 µM [cytotoxic, partial curve]	–
O=C(Nc1ccccc1)N1CCc2ccccc21	inconclusive: 11.2 µM [cytotoxic, partial curve]	–
CCN(CC)S(=O)(=O)c1nnc(NC(=O)COc2ccc(Cl)cc2)s1	inconclusive: 2.51 µM [cytotoxic, full curve, poor fit]	–
COc1ccc(C2CC(c3cccs3)=Nc3ccccc3S2)cc1 (stereo not drawn)	inconclusive: 22.4 µM [cytotoxic, single point]	–
CCCCN(CCCC)CC(O)Cn1cc(/C=C/C(=O)c2ccccc2)c2ccccc21 (stereo not drawn)	inconclusive: 31.6 µM [cytotoxic, single point]	–
Cc1ccc(NC(=O)/C(C#N)=C/c2ccc(C)o2)cc1	inconclusive: 15.8 µM [cytotoxic, partial curve]	–
Cc1c(/C=C(\C#N)C(=O)Nc2cccc(Cl)c2)c2ccccc2n1Cc1ccccc1Cl	–	inactive: 3.5%
c1ccc(CSc2ccc(-c3cccs3)nn2)cc1	inconclusive: 10 µM [cytotoxic, partial curve]	–
COc1cccc(-c2cc(C(=O)Nc3cc(OC)c(OC)c(OC)c3)on2)c1	–	inactive: 2.09%
COc1ccc(-c2nc(Cn3c(SCc4ccc(C)cc4)nc4cccnc43)c(C)o2)cc1OC	inconclusive: 25.1 µM [cytotoxic, single point]	–
Cc1ccc(-n2c(SCC(=O)NCc3ccc(F)cc3)nc3c([nH]c4ccccc43)c2=O)cc1	inconclusive: 4.47 µM [cytotoxic, single point]	–
Cc1ccccc1NC(=O)c1sc2nc(-c3ccncc3)ccc2c1N	inconclusive: 20 µM [cytotoxic, single point]	–
CC(C)(CC(=O)OCC(=O)Nc1ccc(F)c(Cl)c1)CC1=NS(=O)(=O)c2ccccc2N1	–	inactive: 10.8%
CCc1cccc(CC)c1NC(=O)c1cc(S(=O)(=O)N2CCc3ccccc32)cn1C	–	inactive: 43.9%
COC(=O)c1c(NC(=O)CCCOc2ccc(C)cc2)sc2c1C(C(=O)OC)CC2 (stereo not drawn)	–	inactive: 11.2%
Cc1nc(-c2ccccc2)sc1CCNC(=O)c1ccco1	inconclusive: 3.98 µM [cytotoxic, single point]	–
CC(=O)Oc1ccc(Cl)cc1/C=C/c1ccc2ccccc2n1	inconclusive: 0.0112 µM [cytotoxic, full curve, poor fit]	–
CC(Cc1ccccc1)NC(=O)c1ccc([N+](=O)[O-])cc1 (stereo not drawn)	inconclusive: 0.0316 µM [cytotoxic, full curve]	–
Cc1ccc(C(=O)Nc2nnc(SCC(=O)N3CCCc4ccccc43)s2)cc1	active: 1.26 µM	–
Cc1ccc2nc(-c3ccc(N4CCOCC4)cc3)c(Nc3ccccc3C)n2c1	inconclusive: 10 µM [cytotoxic, partial curve]	–
COc1ccc(-n2nc3c(N4CCCC(C(=O)NCc5ccccc5C)C4)nnc(C)c3c2C)cc1 (stereo not drawn)	inconclusive: 20 µM [cytotoxic, single point]	–
COc1ccccc1CNc1ncnc2onc(-c3ccc(Cl)cc3)c12	inconclusive: 5.62 µM [cytotoxic, single point]	–

Structure (SMILES)	Potency	activity change, negative = cytotoxicity
O=C(NCCc1csc(-c2cccc(F)c2)n1)c1ccco1	–	inactive: -3.78%
CCc1ccccc1-n1nnc(-c2nc(-c3ccccc3F)no2)c1C	inconclusive: 3.98 µM [cytotoxic, partial curve]	–
Cn1c(=O)n(C)c2cc(NS(=O)(=O)c3ccc(Cl)cc3)c(NCc3ccccc3)cc21	inconclusive: 31.6 µM [cytotoxic, single point]	–
CCOc1ccc(CCNc2ncnc3onc(C)c23)cc1OCC	–	inactive: 1.93%
CCOC(=O)c1cc(S(=O)(=O)N2CCN(c3cccc(C)c3)C(C)C2)[nH]n1 (stereo not drawn)	–	inactive: 8.41%
CCC1=Nc2cc(C(=O)NC3CCCC3)ccc2Sc2ccc(Cl)cc21	–	inactive: 20.1%
CC1(C)CC(=O)c2sc(NS(=O)(=O)Cc3ccccc3)nc2C1	inconclusive: 22.4 µM [cytotoxic, partial curve, poor fit]	–
COc1cccc(OCc2nc3ccccc3n2Cc2ccccc2)c1	–	inactive: 40.9%
Cn1cc(S(=O)(=O)CC(=O)Nc2ccc3c(c2)OCCO3)c2ccccc21	inconclusive: 17.8 µM [cytotoxic, partial curve]	–
COc1ccc(-c2nnc(SCC(=O)Nc3cccc(C)c3)s2)cc1	inconclusive: 3.16 µM [cytotoxic, single point]	–
Cc1cccc(NC(c2cccc(Cl)c2)c2ccc3cccnc3c2O)n1 (stereo not drawn)	inconclusive: 15.8 µM [cytotoxic, single point]	–
CCc1ccccc1NC(=O)Cn1nc(-c2cc(C)ccc2C)c2c(c1=O)CCCC2	–	inactive: -1.61%
Cc1ccc(CN(Cc2cccn2-c2nnc(N3CCCC3=O)s2)C(=O)Nc2cc(C)cc(C)c2)cc1	inconclusive: 0.0355 µM [cytotoxic, full curve, poor fit]	–
Cc1cccc(N2CCN(C(=O)CCNS(=O)(=O)c3ccc4c(c3)CCN4C(=O)C3CC3)CC2C)c1 (stereo not drawn)	–	inactive: -1.78%
Cc1cccc(C(=O)Nc2nc3c(s2)CCCC3)c1	active: 12.6 µM	–
O=C(CN1C(=O)COc2ccc(S(=O)(=O)N3CCCCCC3)cc21)N1CCN(c2cccc(Cl)c2)CC1	inconclusive: 31.6 µM [cytotoxic, single point]	–
Cn1c(NCc2ccccc2F)nc2ccccc21	inconclusive: 12.6 µM [cytotoxic, partial curve]	–
COc1ccc(-c2cc(C(=O)Oc3ccc(Cl)cc3)c3ccccc3n2)cc1	inconclusive: 3.16 µM [cytotoxic, partial curve]	–
COc1ccccc1Nc1c2c(nc3ccc(NC(=O)/C=C/c4cccc(OC)c4OC)cc13)CCCC2	–	inactive: -9.89%
CCN(C(=O)Cn1c(C(=O)OC)cc2oc3ccccc3c21)c1cccc(C)c1	inconclusive: 0.0251 µM [cytotoxic, full curve, poor fit]	–
CCc1ccc(-n2c(=O)c3c4c(sc3n(Cc3ccc(F)cc3)c2=O)CCCC4)cc1	–	inactive: -5.28%
CCSC1=N/C(=C\c2ccc3c(c2)OCO3)C(=O)S1	–	inactive: 6.07%
CCOc1ccc2nc(N3CCN(C(=O)CS(=O)(=O)c4ccc(F)cc4)CC3)sc2c1	active: 10 µM	–

Structure (SMILES)	Potency	activity change, negative = cytotoxicity
N#CC1=C2SCN(C3CCCCC3)CN2C(=O)CC1c1ccc(Cl)cc1 (stereo not drawn)	–	inactive: -0.56%
Cc1cc(-n2c(C)nc3ccccc3c2=O)ccc1NC(=O)c1ccccc1[N+](=O)[O-]	–	inactive: 4.71%
CCc1ccc(S(=O)(=O)c2nnn3c2nc(Nc2ccc(NC(C)=O)cc2)c2sccc23)cc1	inconclusive: 20 µM [cytotoxic, single point]	–
CCOc1ccc(N(Cc2ccccc2)C(=O)c2nc(S(C)(=O)=O)ncc2Cl)cc1	inconclusive: 25.1 µM [cytotoxic, single point]	–
CCOC(=O)CNC(=O)N1CCN(c2nnc(C)c3c(C)n(-c4ccc(Cl)cc4)nc23)CC1	–	inactive: 0.956%
COc1ccc(-c2cc(C(F)(F)F)nc(NCCc3ccccc3)n2)cc1OC	–	inactive: -4.71%
O=C(CCCn1c(=O)c2cccn2c2ccccc21)NCCc1ccc(Cl)cc1	inconclusive: 12.6 µM [cytotoxic, partial curve]	–
CCn1cnc2cc(NCc3nc4ccccc4n3Cc3ccccc3)ccc21	inconclusive: 12.6 µM [cytotoxic, single point]	–
CCc1ccccc1NC(=O)CN(C)C(=O)Cn1ncc(Cl)c(Cl)c1=O	inconclusive: 22.4 µM [cytotoxic, single point]	–
O=C1CC(c2ccccc2)Sc2ccccc2N1Cc1ccc(F)cc1 (stereo not drawn)	inconclusive: 0.0141 µM [cytotoxic, full curve]	–
CCn1c(C(=O)NCc2ccc(F)cc2)cc2oc3ccccc3c21	inconclusive: 3.98 µM [cytotoxic, full curve, poor fit]	–
Cc1ccc(Cn2c(C(=O)O)c(CNCc3ccc(OC(C)C)cc3)c3ccc(C)cc32)cc1	inconclusive: 15.8 µM [cytotoxic, single point]	–
Cc1c(Cl)ccc2sc(N3CCN(C(=O)C(C)C)CC3)nc12	–	inactive: -5.18%
Cc1ccc(Sc2c(C)nn(-c3ccccc3)c2OC(=O)C(C)(C)C)cc1	–	inactive: 9.14%
COc1ccc(OC)c(CCNC(=O)CS(=O)(=O)Cc2nc(-c3cccc(Cl)c3)oc2C)c1	–	inactive: 32.8%
COCCCNC(=O)c1c(NC(=O)Cc2coc3c(C)c(C)ccc23)sc2c1CCCC2	inconclusive: 6.31 µM [cytotoxic, full curve, poor fit]	–
C/C(=N\NC(=O)c1csc(C)c1C)c1ccco1	inconclusive: 10 µM [cytotoxic, partial curve]	–
Cn1cc(-c2cc3n(n2)CCC(=O)N3CCCC(=O)NCc2ccc(Cl)cc2)c2ccccc21	inconclusive: 31.6 µM [cytotoxic, single point]	–
COc1ccc(Cn2c(CCC(=O)Nc3cc(OC)c(OC)c(OC)c3)nc3cccnc32)cc1	inconclusive: 35.5 µM [cytotoxic, single point]	–
Fc1ccc(-c2nn(-c3ccccc3Cl)c3c2cnc2ccccc23)cc1	inconclusive: 12.6 µM [cytotoxic, partial curve]	–
COc1ccc(-c2cn3ccc4ccccc4c3n2)cc1	inconclusive: 15.8 µM [cytotoxic, partial curve]	–
Fc1ccccc1Cc1cn2cc(-c3ccc(Cl)cc3)nc2s1	inconclusive: 10 µM [cytotoxic, partial curve]	–
